# Assay results from the supplement of paper PMC11417369.
# ± gives the standard deviation of the averaged measurements. The list shows a part of the results.
# System: PfAP2-I AP2 domain 3 (GST-tagged)
# Experiment: gcPBM binding intensity (ln(normalized median fluorescence intensity)); higher = stronger DNA binding
# How it was run: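 GST-tagged P. falciparum DNA-binding domains, expressed in E. coli (about 25 μg on average), were applied for 1 h to an Agilent 4 × 180k array of primer-extended double-stranded 36-bp intergenic genomic probes plus negative controls. The binding buffer was 1× PBS with 1% milk, 0.2 mg/ml BSA, 0.5% salmon testes DNA and 0.03% Triton X-100. Bound protein was detected with Alexa488 anti-GST antibody and scanned at 488 nm. Binding intensity is the highest Masliner-normalised natural-log median intensity across replicate spots of either probe orientation.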
row,Sequence,gcPBM binding intensity (ln)
1,TCATATGTTAAATGATGTACATTTAATATAAATAAA [XGTACX_site900],7.5 ± 0.23
2,AAAAAAAACATCCTCACACATATATATATATATATA [CACACA_site5166],9.37 ± 0.3
3,AAATAAAATTATAATACATGCATACATACATATATA [TGCATGCA_site69],7.9 ± 0.54
4,TATAAATACATACGTACACACAAATATTAAAATATA [CACACA_site5129],7.905 ± 0.007
5,ATGTTACTCAGACACACACACATAAAAAAACAAAAA [CACACA_site3249],8.05 ± 0.49
6,TGTGTTAATATATGAAGTACACAATACACACTAATT [XGTACX_site5469],8.12 ± 0.56
7,AAAAAGGAGAAACACACACACACACCCATATATATA [CACACA_site905],8.31 ± 0.86
8,CATGCTACATCTTATTGTACTTATCTAATGTTAGTA [XGTACX_site1863],7.76 ± 0.66
9,AGGCAATATTATATATATATATATATATATATATAT [CACACA_negctrl_site826],9.37 ± 0.39
10,TCTTTTTACACCTCTTACATAAAACAAAATAAGGGG [XGTACX_negctrl_site12],9.12 ± 0.2
11,TATACATGTTATGTACATCTAATCACACGTGCAATA [CACACA_negctrl_site1267],8.63 ± 0.59
12,TGTATGTTTGGGTGCACACATAAATATTATATATAG [CACACA_site3397],10.5 ± 0.57
13,ATATATATAAAACACACACACACATGGTTTAAAACT [CACACA_site4219],8.12 ± 0.7
14,TTGTAAATTTACATTTGTACATAAATATATTAATAT [XGTACX_site3969],7.75 ± 0.42
15,TATATATTCATATGTTGTACATAAATACAAATAAGA [XGTACX_site5602],7.68 ± 0.44
16,TGCAGTCTGGAGAAGAGTACACAGTATCTGGTAACA [XGTACX_site2037],7.83 ± 0.56
17,AAAGGTAAATGTAAATAAATAAATAATAAATATATA [GTGCAC_negctrl_site681],7.42 ± 0.4
18,AACAGAATAATACTAAATGAACGATTTCTCTTTATG [GTGCAC_negctrl_site376],7.34 ± 0.59
19,ATTTTTTTTTTTTTTTTTTATATGCTCTCCATGAGA [CACACA_negctrl_site1225],7.59 ± 0.48
20,ATTAATATGAATAAAACACACATATATAATTTGTAA [CACACA_site1929],7.42 ± 0.6
21,TAACTTTTATCCTTAATTCATATATAAGATTAAATC [CACACA_negctrl_site669],7.44 ± 0.35
22,AAAAAAAAAAAGAAATGTACATGAATATTTTAAATG [XGTACX_site4069],7.74 ± 0.57
23,TGTGTATATTATATGTGTACATATCAATGTTTATAT [XGTACX_site1885],8.01 ± 0.32

row,Sequence,gcPBM binding intensity (ln)
1,TAATATATAACGTGCACACACACATCTACGTATGAA [CACACA_site5080],10.82 ± 0.099
2,TAATATTAAATAAATAAAATATATAATATATATATA [XGTACX_negctrl_site49],8.41 ± 0.4
3,TGGCATTAAAATTTAGTGCATATATCTTAGCATGGG,10.2 ± 0.33
4,TATTGTTATTAAAAATGTACATATAAATTTCTTATT [XGTACX_site1409],7.73 ± 0.23
5,AAAAATAAAAGGTGTGCACACAAAAATATATATATA [CACACA_site8507],9.74 ± 0.26
6,GTATGATGCATAAGAGTGCATAAGGATATTTCTTCA,10.8 ± 0.3
7,AATTTAAAAAATAACAGTACATAAAATATATACATA [XGTACX_site7917],7.36 ± 0.38
8,TTTATATAATATGAATGTACTTATATATTTATAGAC [XGTACX_site3261],8.12 ± 0.16
9,AAGACTCTTTGTCCTTGTACATATATTTTTATGTTT [XGTACX_site3711],7.76 ± 0.59
10,TATTTATTCTCCAACACACACACATATATATATATA [CACACA_site2894],9.52 ± 0.3
11,AAAATGAATTTAAAATGTACTTTTTCTAAAGAGTAA [XGTACX_site2337],7.52 ± 0.42
12,TTATAGGTGCTTCGTAGTACATAAAAATAATATATA [XGTACX_site6979],8.05 ± 0.22
13,AGTTTTATATTTCTGAGTACTTATGAATCTAGCTCG [XGTACX_site4330],7.73 ± 0.69
14,TTGTAAAAAATTCATACACACGTCTTATTTTTAAGA [CACACA_site8390],7.36 ± 0.49
15,ATTTTTTCTAAAAGTTGTACATTAAAACGTGTTCAC [XGTACX_site4803],7.83 ± 0.36
16,TTTTTTTTTTTTTTTACACACATTTTAATAATTTTA [CACACA_site1492],8.11 ± 0.77
17,TTATTTCTAATTCGTTGTACAATATATAATATATAT [XGTACX_site5861],8.21 ± 0.36
18,TATCCATATTTGTTCACACACACACGGATTTATATA [CACACA_site7649],7.91 ± 0.47
19,GGAATATTATTTCAATGTACATTTTGAGATTAGAAT [XGTACX_site8187],7.8 ± 0.39
20,ATTATTATTTTACGTAGTACATATAATAAATATTTA [XGTACX_site8934],7.5 ± 0.11
21,TTGATAGACACATGCACACATGCAATACTTTATTCA [CACACA_site3000],8.72 ± 0.66
22,TAGGTGTTAAAAAATACACACACAAAAAAAAAAAAA [CACACA_site7927],8.03 ± 0.7
23,CCTTTAAGCAAAAACACACACACATATATATATATA [CACACA_site348],9.39 ± 0.27

row,Sequence,gcPBM binding intensity (ln)
1,TCTTCCATTTTTATTACACACATAAATATGAAATCG [CACACA_site3471],8.07 ± 0.5
2,TATAAAATAAAAAATATATATATGTATATATATATA [TGCATGCA_negctrl_site163],9.32 ± 0.45
3,ATTATTTTATATACATGTACATATTATATATAAAAG [XGTACX_site2735],7.85 ± 0.47
4,TATAAGTGCTCAACGGTGCATTTATAGAAGTTAAAC,10.8 ± 0.58
5,TTAGATATTAATATATGTACATATTAATATATTTAC [XGTACX_site7119],7.55 ± 0.45
6,CACACTTTTTAAATTAACGCATTTCAAAAAAAATAT [CACACA_negctrl_site84],7.85 ± 0.49
7,TATTTATACACGCACACACACTTATACATTTATATA [CACACA_site7543],8.56 ± 0.18
8,TTTCTTTTTTAGAGGTGTACACGTAGGCCTCTTGGA [XGTACX_site4760],8.2 ± 0.33
9,TAAATGTAAAACGAAATGCACACTATGGAAAATATA [CACACA_site724],9.08 ± 0.45
10,TATAATTTTTACTGGGTGCACTCGATATTTTAAATA,10.6 ± 0.57
11,TTTCTATATCTTTCAACACACAAATTTTTTTTTCCA [CACACA_site108],7.82 ± 0.64
12,ACATACATACCCCCACGTACGTACCGAAACACCACC [XGTACX_site1982],9.48 ± 0.39
13,AATTTTATATATATATGTACATATTTATATGCTTAT [XGTACX_site8180],7.87 ± 0.39
14,AATATAAGTGTACATACACACTTTACAATATCATAT [CACACA_site5634],7.91 ± 0.52
15,CAAAGAACTTATAGGGTGCTTTACTTATAAGTAAAT [GTGCAC_site9579],10.8 ± 0.42
16,GTGGTTGTAATGGTGGTGCATATTGTATATTATGTT,10.5 ± 0.26
17,ATGTTAACTAAATGTACACACCTATGTTGATGTAAC [CACACA_site5073],7.87 ± 0.54
18,AAAGTTTAAATGAGAAGTACAAATTTTTGTTTTTAT [XGTACX_site1844],7.66 ± 0.52
19,TATATATATAAAATATGTACATAAAATTATTTATTT [XGTACX_site7666],8.36 ± 0.34
20,TCATAGGAGAACTTTTGTACAGATTTTTCTTTTTTT [XGTACX_site2853],7.42 ± 0.65
21,GTAATACACATATAATGTACTCATAAATATATTTAT [XGTACX_site4041],8.04 ± 0.46
22,AGCAAAAATTAAATAAATAAATATATATATATATAT [TGCATGCA_negctrl_site449],9.21 ± 0.15
23,ATATTAATAATATATACACACATAAGTATTGTATAT [CACACA_site4095],7.52 ± 0.35

row,Sequence,gcPBM binding intensity (ln)
1,GCAACATTCTAAGACACACACACACCCATATATATA [CACACA_site1053],8.45 ± 0.61
2,AATGATGTCATAGGGGGTACACATAAATGTGAATGT [XGTACX_site6745],8.68 ± 0.014
3,AATAATATATATATATATATATATAGATATGTATAT [GTGCAC_negctrl_site653],8.04 ± 0.25
4,TATACATAGAAACACACACACATATATATATATATA [CACACA_site2248],9.43 ± 0.49
5,GTTTATTCTTTTTATACACACCTTATTTGATTAACA [CACACA_site4567],8.21 ± 0.52
6,TTACTACTATATTATACACACATATATATATATATA [CACACA_site2621],9.4 ± 0.75
7,TGTGAATAAATAAGCACACATAAACACATATATAAA [CACACA_site6114],8.27 ± 0.2
8,TTAAAAGAAAAAATATGTACATATATTATATATATC [XGTACX_site7009],7.83 ± 0.43
9,TTTATTTATGTAGATACACACCCATGTTATATGGAG [CACACA_site9144],7.7 ± 0.55
10,TTCTAATATTTTTGCACACTAAACAATAAATTTCCT [CACACA_site3944],9.45 ± 0.18
11,TATATTACTTTGTGTTGTACGGAAATATATATATAT [XGTACX_site4309],9.205 ± 0.064
12,AATATTCAATATATATATATATATAATATTAATATA [GTGCAC_negctrl_site571],7.54 ± 0.35
13,AAGGATTTTTTATACACACACTAACTAATGTATATA [CACACA_site7163],7.71 ± 0.68
14,TAATACCATAACAAGTGTACATAAATAATTATTGTA [XGTACX_site4949],7.92 ± 0.45
15,ATATTTTATTTAATTACACACAATATTGCAATTTGT [CACACA_site669],8.35 ± 0.53
16,ATCAACATTATGGTTAGTACTTAGTGAATTGTTAAT [XGTACX_site4926],7.63 ± 0.59
17,TTATACACCTTTCATTGTACATATAATTTATATTCT [XGTACX_site8685],8.21 ± 0.76
18,GTGTAATATATTTTTCGTACATATTATATATATATA [XGTACX_site1675],9.015 ± 0.049
19,TCTTCTAATTTACCTACACACAGGAGATATATAAAT [CACACA_site6276],7.89 ± 0.51
20,TAATTAATTTATTAGTTGCACTGTACCATTAGAGTA,9 ± 0.11
21,GTTCATAAATTAAACACACACACACCCCTGGATACC [CACACA_site3331],9.115 ± 0.021
